Results as given in PubChem BioAssay AID1030 (National Center for Advancing Translational Sciences (NCATS), 2008).
Among all 220,000 compounds or so, about 16,000 (7.3%) were called active. This list was built around the results that the source calls inconclusive (neither active nor inactive); the mix of calls is not that of the screen. The call rests on the fitted dose curve; in most records, active means well fitted inhibition curve with a large enough effect (not every such curve was filed as active); inconclusive means small, poorly fitted or top-dose-only effect, or another doubt; inactive means no such curve, though single readings can be large or run the other way. Potencies of inconclusive entries are left out as doubtful fits.

target: Aldehyde dehydrogenase 1A1 (Homo sapiens) (UniProt P00352); assay: qHTS Assay for Inhibitors of Aldehyde Dehydrogenase 1 (ALDH1A1); conditions: Purified ALDH1A1, NADH fluorescence, propionaldehyde substrate; series mostly up to 75.3 µM;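 on activity, negative = inhibition: plate controls were no enzyme wells and a reference inhibitor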
Sequence of UniProt P00352 (P00352 whole entry, looked up): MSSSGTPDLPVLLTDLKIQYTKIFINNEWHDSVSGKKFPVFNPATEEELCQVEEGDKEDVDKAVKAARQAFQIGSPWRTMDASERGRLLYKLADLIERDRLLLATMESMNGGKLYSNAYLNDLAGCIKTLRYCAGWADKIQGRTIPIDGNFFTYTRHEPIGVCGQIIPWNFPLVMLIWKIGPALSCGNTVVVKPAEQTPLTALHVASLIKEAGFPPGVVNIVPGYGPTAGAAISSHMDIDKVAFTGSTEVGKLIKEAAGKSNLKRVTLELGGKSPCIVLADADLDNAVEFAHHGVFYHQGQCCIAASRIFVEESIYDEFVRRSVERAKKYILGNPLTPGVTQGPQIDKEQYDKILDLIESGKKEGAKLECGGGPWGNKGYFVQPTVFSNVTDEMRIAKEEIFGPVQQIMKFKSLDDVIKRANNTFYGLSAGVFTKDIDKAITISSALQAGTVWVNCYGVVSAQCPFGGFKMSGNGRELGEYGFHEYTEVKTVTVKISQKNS
Potency means the concentration at half of the fitted maximal effect; tags describe the fitted curve by direction and shape.

Row | SMILES | Potency | activity, negative = inhibition
1 | Cc1[nH]c2ccccc2c1C(c1ccccn1)c1c(C)[nH]c2ccccc12 | inconclusive [inhibitor, single point] | 
2 | COc1ccc(OC)c(-n2c(C)ccc2-c2ccc(S(C)(=O)=O)cc2)c1 | inconclusive [inhibitor, partial curve] | 
3 | Cc1cccc2c1N(CCOc1ccc(C(C)(C)C)cc1)C(=O)C2=O | active: 0.501 µM | 
4 | CCOc1cccc2c1OC(c1cc(OC)c(OC)c(OC)c1)N1N=C(c3ccc(C)o3)CC21 (configuration not stated) | inconclusive [inhibitor, single point] | 
5 | Cc1coc2c(C)c3oc(=O)c4c(c3cc12)CCCC4 | inconclusive [inhibitor, partial curve] | 
6 | O=C(Nc1ccc(F)cc1)c1sc(Cl)nc1-c1ccccc1 | inactive | 
7 | Cc1ccc(C)c(S(=O)(=O)N2CCNCC2)c1 | inconclusive [inhibitor, single point] | 
8 | Cc1ccc2nc(-c3ccccc3)cn2c1 | inconclusive [inhibitor, single point] | 
9 | O=C(c1ccc(Cl)cc1)C1CCCN(Cc2cccn2-c2ccccn2)C1 (configuration not stated) | inactive | 
10 | O=C(CSc1nc(Cc2ccccc2)nc2ccccc12)Nc1ccc2c(c1)OCCO2 | inconclusive [inhibitor, partial curve] | 
11 | O=C(CCc1ccccc1)Nc1ccc2ccccc2n1 | inactive | 
12 | C=CC1=C2C=C(C3CC3)N(CCN3CCOCC3)C=C2C(=O)C(C)(OC(=O)c2ccco2)C1=O (configuration not stated) | inconclusive [inhibitor, single point] | 
13 | N#CCSc1ccsc1C(=O)Nc1ccc(F)cc1 | active: 7.08 µM | 
14 | Cc1ccc(-c2ccc(NC(=O)C3C4C=CC(C4)C3C(=O)O)cc2)o1 (configuration not stated) | inconclusive [inhibitor, single point] | 
15 | COc1ccc(S(=O)(=O)N2CCCC(C(=O)NCc3ccco3)C2)cc1Cl (configuration not stated) | inconclusive [inhibitor, single point] | 
16 | CCCN(Cc1cc2cc(OC)ccc2[nH]c1=O)C(=O)c1ccncc1 | inconclusive [inhibitor, single point] | 
17 | CC1(OC(=O)C2CCCC2)C(=O)C=C2C=C(c3ccsc3)N(CCCCO)C=C2C1=O (configuration not stated) |  | inactive: -3.44% [at 13.5 µM]
18 | COc1cccc(/C=N/n2c(N)c(S(=O)(=O)c3cccs3)c3nc4ccccc4nc32)c1 | inconclusive [inhibitor, partial curve] | 
19 | C=CCN=c1scc(-c2ccc3c(c2)NC(=O)CO3)n1/N=C(\C)c1ccccn1 | active: 2.82 µM | 
20 | CC(=O)c1cc2c(cc1N/C(=N/S(=O)(=O)c1ccc(Br)cc1)c1ccccc1)OCO2 | inconclusive [inhibitor, partial curve] | 
21 | Cc1nn(-c2ccc(F)cc2)c2sc(C(=O)OC3CCOC3=O)cc12 (configuration not stated) | inconclusive [inhibitor, single point] | 
22 | Cc1nc(NC(=O)CSc2nnc(N)s2)c(Cl)cc1Cl | inactive | 
23 | CCOC(=O)C1=C(CSc2nncn2C)NC(=O)NC1c1cc(OCC)ccc1OCC (configuration not stated) | inactive | 
24 | Cc1ccc(-n2nnnc2SC(C)C(=O)Nc2ccc(Cl)cn2)cc1 (configuration not stated) | inconclusive [inhibitor, single point] | 

Row | SMILES | Potency | activity, negative = inhibition
25 | COc1ccc(-c2cnnn2-c2ccc(NC(=O)c3ccc(S(=O)(=O)N4CCCCC4)cc3)cc2)cc1 | inconclusive [inhibitor, partial curve] | 
26 | COc1ccc(CNC(=O)C(C)Sc2ccc(C)cc2)cc1 (configuration not stated) | active: 14.1 µM | 
27 | COc1ncc2nc(CCc3ccccc3)c(=O)n(-c3ccccc3)c2n1 | inconclusive [inhibitor, single point] | 
28 | COC(=O)c1ccc(-c2nc3ccccc3[nH]2)cc1 | inconclusive [inhibitor, partial curve] | 
29 | COc1ccc(/C=C2/C(=O)ON=C2c2ccccc2)cc1OC | active: 22.4 µM | 
30 | C=CCN1C(=O)C(O)(CC(=O)c2ccccc2)c2ccccc21 (configuration not stated) | active: 3.55 µM | 
31 | CC(=O)Nc1cccc(NC(=O)CSc2nnc(Cc3cccn3C)n2-c2ccc(F)cc2)c1 | inconclusive [inhibitor, single point] | 
32 | CCN(CC)S(=O)(=O)c1ccc(C(=O)N2CCN(CCN3C(=O)c4cccc5cccc(c45)C3=O)CC2)cc1 | inconclusive [inhibitor, full curve] | 
33 | COc1cc(OC)c(S(=O)(=O)Nc2ccccc2N2CCOCC2)cc1NC(C)=O | inconclusive [inhibitor, single point] | 
34 | CCc1ccc(N=CC2=C(O)CC(c3ccco3)CC2=O)cc1 (configuration not stated) | inconclusive [inhibitor, single point] | 
35 | Cc1ccc(S(=O)(=O)C(C#N)c2nc3ccccc3nc2N2CCCC2)cc1 (configuration not stated) | inconclusive [inhibitor, partial curve] | 
36 | Nc1ccc2c(c1)C(=O)N(CC1CCCO1)C2=O (configuration not stated) | active: 8.91 µM | 
37 | COCCNC(=O)c1c(NC(=O)c2nc(SC)ncc2Cl)sc2c1CCCC2 | inconclusive [inhibitor, full curve] | 
38 | CCC(=O)NCCc1cc2ccc(C)cc2[nH]c1=O | inconclusive [inhibitor, partial curve] | 
39 | O=C(CCCCCCCC(=O)c1ccccc1)c1ccccc1 | inactive | 
40 | CCC(=O)c1ccc(SC(=O)N(C)C)cc1O | inconclusive [inhibitor, single point] | 
41 | C/C(=C/c1oc2ccc(O)cc2c1[N+](=O)[O-])N(C)C | inactive | 
42 | CCO[C@@H]1OC(C(=O)NCc2nc3ccccc3[nH]2)=C[C@H](c2cn(C(C)=O)c3ccccc23)[C@H]1CCCO | inconclusive [inhibitor, partial curve, poor fit] | 
43 | Cc1cc(C)cc(NC(=S)N(CCCN2CCN(C)CC2)Cc2cccs2)c1 | inconclusive [inhibitor, single point] | 
44 | COc1ccccc1NC(=O)c1c(NC(=O)CCC(=O)O)sc2c1CCCCC2 | active: 22.4 µM | 
45 | CCCn1c(SCC(=O)N2N=C3/C(=C/c4ccc(OC)cc4)CCCC3C2c2ccc(OC)cc2)n[nH]c1=O (configuration not stated) | inconclusive [inhibitor, single point] | 
46 | Cc1cccn2cc(-c3ccc(F)cc3)cc12 | inconclusive [inhibitor, single point] | 
47 | CC1CCN(CC(=O)Nc2cccc([N+](=O)[O-])c2)CC1 | inconclusive [inhibitor, single point] | 
48 | Cc1ccc(N(Cc2cc(=O)[nH]c3ccccc23)C(=O)c2ccco2)cc1 | inconclusive [inhibitor, single point] | 

Row | SMILES | Potency | activity, negative = inhibition
49 | CCOC(=O)Cc1ncccc1C(=O)Nc1ccc(OC(F)(F)F)cc1 | inactive | 
50 | O=C(NC(=S)NC1CCCCCCCCCCC1)c1cccnc1 | inconclusive [inhibitor, single point] | 
51 | C=C(C)c1cccc(C(C)(C)NC(=O)Nn2cnnc2)c1 | inactive | 
52 | Cc1cccc(CN2C(=O)N/C(=C/c3ccc(C)s3)C2=O)c1 | inconclusive [inhibitor, partial curve] | 
53 | CCN(CC)S(=O)(=O)c1ccc(-c2nnc(SCC(=O)Nc3cc(OC)cc(OC)c3)o2)cc1 | active: 12.6 µM | 
54 | COc1ccccc1Nc1nc(N)nc(CSc2nncn2C)n1 | inconclusive [inhibitor, single point] | 
55 | Cc1oc2c(c1C(=O)O)C(=O)c1ccccc1C2=O | inconclusive [inhibitor, single point] | 
56 | CSc1nc2nc3c(cc2c(=O)[nH]1)C(O)Oc1ccc(C)cc1-3 (configuration not stated) | inconclusive [inhibitor, single point] | 
57 | Clc1cccc(C=NC=Nc2cccc(Cl)c2)c1 | inactive | 
58 | CCN1C(=O)S/C(=C/c2ccc(Oc3ccc([N+](=O)[O-])cn3)c(OC)c2)C1=O | inconclusive [inhibitor, partial curve, poor fit] | 
59 | Cc1ccccc1N=C/C=C1/C=C(c2ccccc2)OC(C)(C)O1 | active: 2.24 µM | 
60 | CCOC(=O)CNC(=O)c1cc(-c2ccc3c(c2)OCCO3)oc1C | inconclusive [inhibitor, single point] | 
61 | O=C(NCc1cccs1)C(Cc1ccccc1)n1cccc1 (configuration not stated) | inactive | 
62 | CCOC(=O)C1=CN(C)C=C(C(=O)OCC)C1c1ccsc1 | inconclusive [inhibitor, full curve] | 
63 | COc1ccc(S(=O)(=O)N(CCc2ccccc2)CC(=O)NCCCO)cc1 | active: 8.91 µM | 
64 | O=C(O)c1ccc(/C=N/N2CCN(Cc3ccc(Cl)cc3)CC2)cc1 | inactive | 
65 | COc1ccc(CNC(=O)CN(Cc2ccccc2)C(=O)c2csnn2)cc1 | inconclusive [inhibitor, partial curve] | 
66 | COc1ccc(-c2nnnn2CCc2ccccc2)cc1 | inactive | 
67 | Cc1cc(=O)[nH]c(=S)[nH]1 | inactive | 
68 | CC(=O)c1cccc(NC(=S)NC(=O)c2cccc(C)c2)c1 | inconclusive [inhibitor, single point] | 
69 | CC1C(c2ccccc2)N(C)C(c2ccccc2)CC1(O)c1ccccc1 (configuration not stated) | inactive | 
70 | CCOc1cccc(=O)c2c(C)n(CC3CCCO3)c(C)c12 (configuration not stated) | inconclusive [inhibitor, single point] | 
71 | CC(CNS(=O)(=O)c1ccccc1)(c1ccccc1)N1CCOCC1 (configuration not stated) | inactive | 
72 | Cc1cccc(C(=O)c2c[nH]cc2-c2ccccc2)c1 | inactive | 
